According to the antibiotic and cytotoxicity screens of Wong et al. (2023):
This is one part of the list.

Assays:
HSkMC = human skeletal muscle cells; test: cytotoxicity call (relative viability < 0.9); conditions: 10 µM
HepG2 = test: cytotoxicity call (relative viability < 0.9); conditions: 10 µM
S. aureus RN4220 = test: growth inhibition call (relative growth <= 0.2); conditions: 50 µM

| Structure (SMILES) | cytotoxicity call (HSkMC) | cytotoxicity call (HepG2) | growth inhibition call (S. aureus RN4220) |
| --- | --- | --- | --- |
| COc1cccc(NC(=O)N2C[C@H](O)COC[C@@H]3O[C@H](CC(=O)NCc4ccccc4F)CC[C@H]32)c1 | inactive | inactive | inactive |
| CC(C)NC(=O)N(C)C[C@@H]1OCCCC[C@@H](C)Oc2ccc(NC(=O)Nc3ccc(C(F)(F)F)cc3)cc2C(=O)N([C@H](C)CO)C[C@@H]1C | inactive | inactive | inactive |
| C=C(C)C1CC=C(C)CC1 (stereo not given) | inactive | inactive | inactive |
| C[C@H](C(=O)O)[C@H]1SC(=O)NC1=O | inactive | inactive | inactive |
| C[C@@H]1CN([C@@H](C)CO)S(=O)(=O)c2ccc(C#Cc3ccc(F)cc3)cc2O[C@@H]1CN(C)S(C)(=O)=O | inactive | inactive | inactive |
| Cc1ccc(S(=O)(=O)N(C)C[C@@H]2Oc3ccc(NS(=O)(=O)c4cn(C)cn4)cc3C(=O)N([C@H](C)CO)C[C@@H]2C)cc1 | inactive | inactive | inactive |
| COc1ccc(S(=O)(=O)N(C)C[C@@H]2OCCCC[C@@H](C)Oc3ccc(NC(=O)CCC(F)(F)F)cc3C(=O)N([C@@H](C)CO)C[C@H]2C)cc1 | inactive | inactive | inactive |
| CCc1ccc(NC(=S)Nc2ccccc2C(C)C)cc1 | inactive | inactive | inactive |
| C[C@@H]1CN([C@@H](C)CO)C(=O)c2cc(NC(=O)CCC(F)(F)F)ccc2O[C@@H](C)CCCCO[C@@H]1CN(C)C(=O)Nc1ccc2c(c1)OCO2 | inactive | inactive | inactive |
| C[C@@H]1CN([C@H](C)CO)C(=O)c2cc(NC(=O)c3ccncc3)ccc2O[C@@H](C)CCCCO[C@@H]1CN(C)Cc1ccccc1 | inactive | inactive | inactive |
| CCOn1c(=O)c(=O)n(OC)c2ccccc21 | inactive | inactive | inactive |
| C[C@H]1CCCCO[C@H](CN(C)Cc2ccc(C(F)(F)F)cc2)[C@@H](C)CN([C@@H](C)CO)C(=O)c2cc(N(C)C)ccc2O1 | inactive | inactive | inactive |
| C[C@@H]1CCCCO[C@H](CN(C)C(=O)NC2CCCCC2)[C@H](C)CN([C@H](C)CO)C(=O)c2cc(NS(=O)(=O)c3ccccc3)ccc2O1 | inactive | inactive | inactive |
| C[C@H](CO)N1C[C@H](C)[C@@H](CN(C)Cc2ccc(-c3ccccc3)cc2)Oc2c(NC(=O)c3nc4ccccc4s3)cccc2C1=O | inactive | inactive | inactive |
| CO[C@@H](C(=O)N(C)C[C@H]1OCc2ccccc2-c2c(n(C)c3ccccc23)C(=O)N([C@H](C)CO)C[C@@H]1C)c1ccccc1 | inactive | inactive | inactive |
| COc1ccc2c3c(n(c2c1)C)[C@@H](CO)N(CC1CCCC1)C[C@]13CCN(CC1)C(=O)Nc1ccccc1 | inactive | active | inactive |
| C[C@@H]1CN([C@H](C)CO)C(=O)c2cc(NC(=O)CCCN(C)C)ccc2O[C@H]1CN(C)C(=O)NC1CCCCC1 | inactive | inactive | inactive |
| COCC(=O)Nc1ccc2c(c1)OC[C@@H](C)N(Cc1ccccc1OC)C[C@H](C)[C@@H](OC)CN(C)C2=O | inactive | inactive | inactive |
| CN(C)CC(=O)N1CC2(C1)[C@H](c1ccccc1)[C@@H](CO)N2S(C)(=O)=O | inactive | inactive | inactive |
| C[C@@H]1CCCCO[C@@H](CN(C)C(=O)c2ccccc2)[C@@H](C)CN([C@@H](C)CO)C(=O)c2cc(NC(=O)Nc3cccc4ccccc34)ccc2O1 | inactive | inactive | inactive |
| CC(=O)N(C)C[C@H]1Oc2ncc(C#C[C@H](C)O)cc2C(=O)N([C@@H](C)CO)C[C@@H]1C | inactive | inactive | inactive |
| C[C@@H]1CN([C@@H](C)CO)S(=O)(=O)c2ccc(-c3cccc(F)c3)cc2O[C@H]1CN(C)S(C)(=O)=O | inactive | inactive | inactive |
| C[C@@H]1CCCCO[C@H](CN(C)Cc2ccc(C(F)(F)F)cc2)[C@@H](C)CN([C@@H](C)CO)C(=O)c2cc(NS(=O)(=O)c3ccccc3)ccc2O1 | inactive | inactive | inactive |
| O=C(N[C@H]1CC[C@@H](CCNS(=O)(=O)c2ccccc2)O[C@@H]1CO)c1cnccn1 | inactive | inactive | inactive |
| COCCOC(=O)N1C(=O)[C@@]2(c3cc(C#Cc4ccc(OC)cc4)ccc31)[C@H](c1ccc(O)cc1)N1[C@H](c3ccccc3)[C@H](c3ccccc3)OC(=O)[C@H]1[C@@H]2C(N)=O | inactive | inactive | inactive |
